Some of the results follow. The full chains were built here from the parent and the listed change. Inactive controls read about 0.05.
B1: TEV protease; numbered along this chain (parent)
chain: MGESLFKGPRDYNPISSSICHLTNESDGHTTSLYGIGFGPFIITNKHLFRRNNGTLVVQSLHGVFKVKDTTTLQQHLVDGRDMIIIRMPKDFPPFPQKLKFREPQREERICLVTTNFQTKSMSSMVSDTSCTFPSGDGIFWKHWIQTKDGQCGSPLVSTRDGFIVGIHSASNFTNTNNYFTSVPKNFMELLTNQEAQQWVSGWRLNADSVLWGGHKVFMVKPEEPFQPVKEATQL

Variants of: B1
Experiment: raw area under fraction-flipped curve 0-4 h after induction (AUC4h, not background-subtracted), DNA-recorder readout of cleavage of the substrate (dimensionless); higher = more cleavage of the substrate by the protease variant
Details: temperature: 34 °C; time window: 0-4 h after rhamnose induction
Method: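 In vivo DNA recorder in E. coli TOP10(DE3) ΔrhaA at 34 °C. Each TEVp single-site mutant (parent TEVp 0) is paired with a single-site variant of the 7-mer TEVs (canonical ENLYFQ|S). The substrate sits between flexible linkers in a Bxb1-sfGFP-TEVs-SsrA fusion, so cleavage stabilises Bxb1 and speeds flipping of a recombination array, read by NGS. The value is the raw area under the fraction-flipped curve over 0-4 h after rhamnose induction (AUC4h), with ≥20 reads per time point. It is not background-subtracted; inactive controls average about 0.047.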
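Note: Bxb1 expression induced with 0.2% (w/v) L-rhamnose at OD600 near 0.5, cultures sampled hourly, flipped fraction per protease–substrate barcode pair counted by paired-end Illumina sequencing.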

Row | Variant | area with substrate ENLAFQS | area with substrate ENLCFQS | area with substrate ENLDFQS | area with substrate ENLEFQS | area with substrate ENLFFQS | area with substrate ENLGFQS | area with substrate ENLHFQS | area with substrate ENLIFQS | area with substrate ENLLFQS | area with substrate ENLMFQS | area with substrate ENLNFQS | area with substrate ENLPFQS | area with substrate ENLRFQS | area with substrate ENLSFQS | area with substrate ENLTFQS | area with substrate ENLVFQS | area with substrate ENLWFQS | area with substrate ENLKFQS | area with substrate ENLQFQS
1 | MGESLFKGPRDYNPISSSICHLTNESDGHTTSLYGIGFGPFIITNKHLFRRNNGTLVVQSLHGVFKVKDTTTLQQHLVDGRDMIIIRMPKDFPPFIQKLKFREPQREERICLVTTNFQTKSMSSMVSDTSCTFPSGDGIFWKHWIQTKDGQCGSPLVSTRDGFIVGIHSASNFTNTNNYFTSVPKNFMELLTNQEAQQWVSGWRLNADSVLWGGHKVFMVKPEEPFQPVKEATQL [P96I] | 0.0654 | 0.0523 | 0.0646 | 0.0597 | 0.0718 | 0.0539 | 0.0657 | 0.0813 | 0.0807 | 0.0802 | 0.056 | 0.0611 | 0.0713 | 0.0474 | 0.0501 | 0.0486 | 0.0689 |  | 
2 | MGESLFKGPRDYNPISSSICHLTNESDGHTTSLYGIGFGPFIITNKHLFRRNNGTLVVQSLHGVFKVKDTTTLQQHLVDGRDMIIIRMPKDFPPFPQDLKFREPQREERICLVTTNFQTKSMSSMVSDTSCTFPSGDGIFWKHWIQTKDGQCGSPLVSTRDGFIVGIHSASNFTNTNNYFTSVPKNFMELLTNQEAQQWVSGWRLNADSVLWGGHKVFMVKPEEPFQPVKEATQL [K98D] | 0.0707 | 0.0705 | 0.069 | 0.0613 | 0.0914 |  | 0.0818 | 0.0954 |  | 0.07 | 0.0716 | 0.0592 | 0.0654 |  | 0.0688 | 0.0983 | 0.0686 | 0.0877 | 0.0695
3 | MGESLFKGPRDYNPISSSICHLTNESDGHTTSLYGIGFGPFIITNKHLFRRNNGTLVVQSLHGVFKVKDTTTLQQHLVDGRDMIIIRMPKDFPPFPQKLKLREPQREERICLVTTNFQTKSMSSMVSDTSCTFPSGDGIFWKHWIQTKDGQCGSPLVSTRDGFIVGIHSASNFTNTNNYFTSVPKNFMELLTNQEAQQWVSGWRLNADSVLWGGHKVFMVKPEEPFQPVKEATQL [F101L] | 0.0713 |  |  |  | 0.0554 |  |  | 0.0844 |  |  | 0.0607 | 0.0271 |  |  |  |  | 0.0659 | 0.0692 | 0.0781
4 | MGESLFKGPRDYNPISSSICHLTNESDGHTTSLYGIGFGPFIITNKHLFRRNNGTLVVQSLHGVFKVKDTTTLQQHLVDGRDMIIIRMPKDFPPFPQKLKFRRPQREERICLVTTNFQTKSMSSMVSDTSCTFPSGDGIFWKHWIQTKDGQCGSPLVSTRDGFIVGIHSASNFTNTNNYFTSVPKNFMELLTNQEAQQWVSGWRLNADSVLWGGHKVFMVKPEEPFQPVKEATQL [E103R] | 0.066 | 0.0617 | 0.0643 | 0.066 | 0.085 | 0.0824 | 0.0617 | 0.0903 | 0.0655 |  | 0.0527 | 0.0595 |  | 0.0534 |  | 0.0746 | 0.0582 | 0.0723 | 0.0558
5 | MGESLFKGPRDYNPISSSICHLTNESDGHTTSLYGIGFGPFIITNKHLFRRNNGTLVVQSLHGVFKVKDTTTLQQHLVDGRDMIIIRMPKDFPPFPQKLKFREPSREERICLVTTNFQTKSMSSMVSDTSCTFPSGDGIFWKHWIQTKDGQCGSPLVSTRDGFIVGIHSASNFTNTNNYFTSVPKNFMELLTNQEAQQWVSGWRLNADSVLWGGHKVFMVKPEEPFQPVKEATQL [Q105S] | 0.0746 | 0.0815 | 0.0634 |  | 0.0803 |  |  |  | 0.0747 |  | 0.0528 | 0.0581 | 0.0677 | 0.0596 |  |  |  |  | 
6 | MGESLFKGPRDYNPISSSICHLTNESDGHTTSLYGIGFGPFIITNKHLFRRNNGTLVVQSLHGVFKVKDTTTLQQHLVDGRDMIIIRMPKDFPPFPQKLKFREPQMEERICLVTTNFQTKSMSSMVSDTSCTFPSGDGIFWKHWIQTKDGQCGSPLVSTRDGFIVGIHSASNFTNTNNYFTSVPKNFMELLTNQEAQQWVSGWRLNADSVLWGGHKVFMVKPEEPFQPVKEATQL [R106M] | 0.0658 |  | 0.051 | 0.0536 | 0.12 |  | 0.0617 |  |  | 0.107 |  |  | 0.109 | 0.0391 |  |  |  |  | 0.0751
7 | MGESLFKGPRDYNPISSSICHLTNESDGHTTSLYGIGFGPFIITNKHLFRRNNGTLVVQSLHGVFKVKDTTTLQQHLVDGRDMIIIRMPKDFPPFPQKLKFREPQVEERICLVTTNFQTKSMSSMVSDTSCTFPSGDGIFWKHWIQTKDGQCGSPLVSTRDGFIVGIHSASNFTNTNNYFTSVPKNFMELLTNQEAQQWVSGWRLNADSVLWGGHKVFMVKPEEPFQPVKEATQL [R106V] | 0.0718 |  |  | 0.0575 | 0.0772 | 0.0764 | 0.075 | 0.084 |  |  | 0.0743 | 0.0608 | 0.0714 | 0.0605 |  |  | 0.0566 | 0.0829 | 
8 | MGESLFKGPRDYNPISSSICHLTNESDGHTTSLYGIGFGPFIITNKHLFRRNNGTLVVQSLHGVFKVKDTTTLQQHLVDGRDMIIIRMPKDFPPFPQKLKFREPQYEERICLVTTNFQTKSMSSMVSDTSCTFPSGDGIFWKHWIQTKDGQCGSPLVSTRDGFIVGIHSASNFTNTNNYFTSVPKNFMELLTNQEAQQWVSGWRLNADSVLWGGHKVFMVKPEEPFQPVKEATQL [R106Y] | 0.0719 | 0.0688 | 0.0834 | 0.0377 | 0.0954 | 0.0748 | 0.104 |  | 0.0626 |  | 0.0594 | 0.0287 |  | 0.0617 |  | 0.0867 | 0.0502 | 0.0782 | 0.0445
